The list shows a part of the results. At the low end of the ranking the order means little.
biological target: SIX1 homeodomain (reference allele) (UniProt Q15475); experiment: universal protein binding microarray; conditions: Universal all-10-mer PBM (8x60K, AMADID 030236), 300 nM GST-tagged protein, Alexa Fluor 488 anti-GST; buffer, salt, pH and temperature not stated; high values mean tight binding; most listed sequences are background and not binding sites; double strand, one strand shown

Row | Sequence | binding signal [E-score]
1 | AACCCCTC | 0.098
2 | CGCTTGCC | -0.199
3 | CTAGCATC | -0.0401
4 | AATGCGAA | -0.296
5 | GACATGCA | -0.0253
6 | CCTCCTCA | 0.0671
7 | GTGACCCA | -0.0867
8 | TACTCCAA | 0.142
9 | CGGCACCC | -0.147
10 | CGAAGGAC | -0.291
11 | CTTGGTTC | -0.11
12 | CGTCCGAA | -0.23
13 | CGTGATGA | -0.0914
14 | AGGACTAT | 0.0575
15 | CGCACCTA | -0.00069
16 | CCTCGAAA | -0.131
17 | GCGATTCA | -0.105
18 | CGAGGTCC | -0.322
19 | AAATTCTT | -0.305
20 | CTAGAAGC | -0.0514
21 | CATTTCAA | -0.138
22 | AAGTCACA | -0.239
23 | CAACCGAA | -0.0628
24 | AATCGATT | -0.138
25 | GTGCTGCA | -0.0432

Row | Sequence | binding signal [E-score]
26 | AAAGACTA | -0.157
27 | GGCGGTGA | 0.0301
28 | GGTATGAA | 0.224
29 | AGGTACAC | 0.0753
30 | ATTAAGCC | 0.0815
31 | CGTCGCTA | -0.115
32 | AGGAGTAG | -0.086
33 | CATTGTTA | -0.0908
34 | AGTCGACC | 0.00222
35 | CATGATTC | 0.016
36 | AATCAAGT | -0.271
37 | AAGGTTAG | -0.234
38 | ACGGTCGA | -0.0318
39 | AACCGTGT | -0.0205
40 | TGCACAAA | -0.195
41 | CTATCCAA | 0.0851
42 | TAGAAGCA | -0.0955
43 | CGAGCCAG | 0.0485
44 | CAAGACCC | -0.108
45 | CAAGATTA | -0.0429
46 | AGTATTCC | 0.121
47 | ATGCCAAA | -0.198
48 | CGAATCAC | -0.117
49 | AGGTTAGC | -0.232
50 | GTACCGAA | -0.276

Row | Sequence | binding signal [E-score]
51 | GGAACGCA | -0.134
52 | TCACGAAA | -0.126
53 | ACTAGTCG | -0.107
54 | CAAAAAGC | -0.115
55 | ATAGGTCC | 0.105
56 | CCGTACGG | 0.02
57 | AAGGCCAC | -0.277
58 | TAAGTAAA | -0.212
59 | CCGTTCAC | -0.143
60 | CTGTGTTA | -0.0642
61 | AGACTACT | -0.175
62 | CTCCCGAA | -0.00145
63 | TACCGTGA | 0.155
64 | ACTACCTC | -0.0464
65 | AGGACGAC | -0.144
66 | ATACGTTC | 0.292
67 | AATTAGTG | -0.0766
68 | ACACAGCC | -0.0914
69 | CTGATACC | 0.484
70 | GAGTAGTA | 0.111
71 | CCTATTTA | -0.0475
72 | GTCCTAAC | -0.181
73 | CGACGACC | -0.218
74 | GAGCAATC | -0.0924
75 | TATAGTCA | 0.0687

Row | Sequence | binding signal [E-score]
76 | AATAAAAC | -0.159
77 | GGAGCGCA | -0.249
78 | CTGGCAAA | -0.294
79 | ACCCCAGT | 0.179
80 | CCTGGTAG | -0.0844
81 | GCCGGTCC | -0.19
82 | ATAACTCC | 0.0181
83 | GACTATGA | -0.0399
84 | CACTCGCA | -0.0481
85 | CATAGTCG | -0.139
86 | AAGGGGCC | -0.22
87 | AGCCTGGA | -0.176
88 | CTCTCGAA | -0.229
89 | TACGTGAA | 0.0221
90 | GTAATAAA | -0.123
91 | ATAGCCGA | 0.149
92 | AACCATCT | 0.154
93 | CGCACTCA | 0.015
94 | GCTGTTAC | -0.382
95 | AGACCACC | -0.17
96 | GTTCGAAC | -0.00999
97 | CGTTCCTA | -0.101
98 | AGGAGGAA | -0.166
99 | GACTCAAA | -0.141
100 | ACTTGAAG | -0.112

Row | Sequence | binding signal [E-score]
101 | ACTTGTCA | -0.0982
102 | CATCAACG | -0.148
103 | TAGTCCGA | -0.182
104 | CCGGAACA | -0.12
105 | TATTTAAA | 0.133
106 | AGGTCGCC | -0.177
107 | AGGGACAT | 0.0455
108 | AGTTTGTA | -0.198
109 | ATTGCTTA | 0.0943
110 | GACCTTCA | -0.193
111 | GAACAACC | -0.105
112 | AGGTGTTA | 0.203
113 | CAGTGTAC | -0.144
114 | CTGGCTGC | -0.145
115 | GGTTGAAA | -0.0944
116 | AGGATTAT | 0.257
117 | GTCAACAA | -0.0407
118 | GCAACGGA | 0.0437
119 | GATGTCAC | -0.0872
120 | CGCATATA | 0.158
121 | CAGGTTGA | -0.00732
122 | AACAAGGG | -0.225
123 | GCTACTAC | 0.0636
124 | CGCGTAAA | -0.265
125 | AACTAGGC | -0.197

Row | Sequence | binding signal [E-score]
126 | GGAGAGAA | -0.25
127 | GTTATAAA | -0.13
128 | GGCCCATA | -0.0125
129 | ACACACCT | 0.132
130 | TAACAACA | -0.187
131 | CGAACAGC | -0.136
132 | GGCTGAGA | 0.0491
133 | AGGGACTC | -0.222
134 | GAGTGACC | -0.0311
135 | GAAATCAC | -0.0941
136 | CGGGGCTA | 0.104
137 | AGTTTCTC | -0.121
138 | ATGTGTCC | -0.0824
139 | GGAAAACC | -0.159
140 | GATCGCAA | 0.242
141 | ACAGCTCG | -0.122
142 | TGCCCACA | -0.208
143 | GCACCTAC | -0.268
144 | CAAATCAC | -0.179
145 | AGTAACGG | -0.11
146 | CTATTGAA | -0.194
147 | ACAAGCCG | -0.186
148 | GTGCAGGA | -0.0837
149 | TACACTCA | 0.0336
150 | CCTCTCTC | -0.0605

Row | Sequence | binding signal [E-score]
151 | ACCAGATG | -0.0274
152 | CATTGTAG | -0.0567
153 | GCAATACA | 0.119
154 | CACGTGTC | 0.0339
155 | AAACTCAT | -0.119
156 | AACAGGTC | -0.286
157 | ACCTGACC | 0.0357
158 | CAGATCGA | 0.277
159 | AGAACTCA | -0.0885
160 | CAGGGTAA | 0.0774
161 | GGCTTGCA | -0.0878
162 | CGGGGCGA | 0.136
163 | AATGATAA | 0.0479
164 | AGTATAGA | 0.195
165 | GCTAACCA | -0.214
166 | CCAGACAA | -0.166
167 | ACACACTG | -0.0238
168 | GTACAAAC | -0.244
169 | CCAGAGGC | -0.216
170 | AGCGAGCG | -0.182
171 | AACCGGAC | -0.0533
172 | CAGCGGGG | 0.176

Reference: article PMC10668032
